# Where “and” joins values, the source holds several entries; their conditions need not be identical. Equal values may be shown once. The inconclusive results got no clear call from the source; some entries with a clear call stand among them for comparison. For some assays here: Where the call is inconclusive, the potency comes from a doubtful curve fit. Calls of active or inactive are those of the source. Unless noted, calls follow the shape of the dose curve; as a rule, active = well fitted curve in the direction sought with a large enough effect in the repeat runs; inconclusive = weak or mixed curves; inactive = no such curve, though single readings can be large; an effect the other way counts as inactive or inconclusive.
# Key:
# [1] = A CellTox Green Cytotoxicity Assay to monitor cytotoxicity in HepG2 cells - 32 hour (AID 1224883); also: nearly all actives have a fitted effect of over 50% in size; also: potency is read from the fitted curve at half-maximal effect
# In short: (§1)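 Real-time cytotoxicity: fluorescence of a cell-impermeant cyanine dye binding DNA of dead HepG2 cells, measured repeatedly (0–40 h) during compound exposure at 37 C. Cells seeded 600/well with reagent, dosed after 5 h.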
# [2] = qHTS RealTime-Glo MT Cell Viability Assay in HepG2 cells - 0 hour (AID 1224889); also: potency is read from the fitted curve at half-maximal effect; nearly all actives have a fitted effect of over 50% in size
# In short: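 Cells + NanoLuc/prosubstrate dispensed (600 cells/well) → 5 h at 37 C/5% CO2 → compounds in DMSO transferred → 40 h incubation at 37 C, luminescence read at 0, 8, 16, 24, 32, 40 h.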
# [3] = target: Estrogen receptor beta (Homo sapiens) (UniProt Q92731); experiment: qHTS assay to identify small molecule agonists of the estrogen receptor beta (ER-beta) signaling pathway (AID 1259377; active = well fitted activation curve with a large enough effect in the signal ratio in the repeat runs, not every such curve was filed as active; inconclusive = weak or mixed curves, or effect the other way; the % refers to the signal ratio; also: potency is read from the fitted curve at half-maximal effect; as to activation: % is scaled to controls: 0 for no effect and ±100 for the full control effect); conditions: ER-beta-UAS-bla HEK293T, beta-lactamase FRET ratio, 16 h; activation: at 92.4 µM (top of the series) unless noted
# Chain of UniProt Q92731 (Q92731 whole entry, looked up): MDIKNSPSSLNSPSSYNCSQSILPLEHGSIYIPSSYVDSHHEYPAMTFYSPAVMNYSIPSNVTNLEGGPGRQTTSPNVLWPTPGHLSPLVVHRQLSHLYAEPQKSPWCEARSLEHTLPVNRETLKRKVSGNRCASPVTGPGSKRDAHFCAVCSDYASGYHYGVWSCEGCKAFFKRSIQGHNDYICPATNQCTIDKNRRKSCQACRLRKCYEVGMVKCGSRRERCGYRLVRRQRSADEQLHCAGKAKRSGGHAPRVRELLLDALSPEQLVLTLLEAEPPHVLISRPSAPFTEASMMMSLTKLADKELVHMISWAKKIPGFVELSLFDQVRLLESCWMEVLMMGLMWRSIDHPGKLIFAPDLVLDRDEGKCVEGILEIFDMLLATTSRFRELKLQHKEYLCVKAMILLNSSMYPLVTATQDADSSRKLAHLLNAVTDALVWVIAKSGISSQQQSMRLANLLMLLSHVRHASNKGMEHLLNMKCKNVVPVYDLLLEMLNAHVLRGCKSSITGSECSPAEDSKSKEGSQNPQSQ
# In short: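 HEK293T ER-beta-UAS-bla; 2% charcoal-stripped FBS; cells pre-incubated 6 hr, compound 16 hr, 37C/5% CO2; LiveBLAzer B/G FRET substrate 2 h RT; fluorescence intensity read.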
# [4] = A CellTox Green Cytotoxicity Assay to monitor cytotoxicity in HEK293 cells - 16 hour (AID 1224888); also: nearly all actives have a fitted effect of over 35% in size; also: potency is read from the fitted curve at half-maximal effect
# In short: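 Fluorescence from a DNA-binding dye excluded by viable cells was measured repeatedly in the same HEK293 wells (600 cells/well) during continuous compound exposure at 37 C. Each assay gives one read point: 0, 8, 16, 24, 32 or 40 h.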
# [5] = target: Androgen receptor (Homo sapiens) (UniProt P10275); experiment: qHTS assay to identify small molecule antagonists of the androgen receptor (AR) signaling pathway using the MDA cell line in the presence of 0.5 nM R1881 (AID 1259243); also: potency is read from the fitted curve at half-maximal effect; nearly all actives have a fitted effect of over 50% in size
# Chain of UniProt P10275 (P10275 whole entry, looked up): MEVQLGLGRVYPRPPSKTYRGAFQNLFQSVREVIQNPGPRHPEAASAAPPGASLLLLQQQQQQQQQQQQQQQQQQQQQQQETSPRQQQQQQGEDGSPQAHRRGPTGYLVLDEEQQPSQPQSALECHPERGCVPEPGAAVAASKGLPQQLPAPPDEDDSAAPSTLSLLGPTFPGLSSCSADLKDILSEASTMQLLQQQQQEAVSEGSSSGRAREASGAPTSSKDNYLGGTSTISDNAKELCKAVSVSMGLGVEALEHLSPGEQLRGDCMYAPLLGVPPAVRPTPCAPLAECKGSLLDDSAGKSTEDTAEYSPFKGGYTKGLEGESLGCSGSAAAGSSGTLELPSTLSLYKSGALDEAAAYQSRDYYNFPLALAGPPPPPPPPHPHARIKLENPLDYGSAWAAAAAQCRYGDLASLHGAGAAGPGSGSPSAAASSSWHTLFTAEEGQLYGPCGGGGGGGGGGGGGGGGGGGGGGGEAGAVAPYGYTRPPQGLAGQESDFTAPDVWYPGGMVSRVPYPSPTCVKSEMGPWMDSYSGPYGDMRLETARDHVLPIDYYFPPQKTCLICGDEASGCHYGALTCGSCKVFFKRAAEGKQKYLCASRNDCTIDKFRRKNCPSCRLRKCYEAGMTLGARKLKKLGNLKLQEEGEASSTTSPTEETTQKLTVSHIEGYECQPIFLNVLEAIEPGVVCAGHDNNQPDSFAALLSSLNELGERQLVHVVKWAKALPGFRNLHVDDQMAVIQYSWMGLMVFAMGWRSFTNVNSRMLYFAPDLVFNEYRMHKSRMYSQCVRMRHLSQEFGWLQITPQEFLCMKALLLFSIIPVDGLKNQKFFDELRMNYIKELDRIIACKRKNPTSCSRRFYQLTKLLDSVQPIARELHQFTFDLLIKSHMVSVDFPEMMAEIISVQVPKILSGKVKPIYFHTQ
# In short: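 Luminescent reporter readout (ONE-Glo, 30 min, room temperature) after 16 hr co-treatment of MDA-kb2 cells with test compounds and 0.5 nM R1881 final, at 37C without CO2. The MMTV-driven luciferase responds to both AR and GR.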
# [6] = qHTS assay to identify small molecule antagonists of the sonic hedgehog signaling (Shh) pathway (AID 1259369; calls by dose curve; also: potency is read from the fitted curve at half-maximal effect; nearly all actives have a fitted effect of over 45% in size)
# In short: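 Antagonist mode: compound added to 3T3 Gli1-Luc cells followed by conditioned-medium stimulation, 24 h at 37 C, 5% CO2. Inhibition taken as loss of Gli1-driven luciferase luminescence.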
# [7] = A CellTox Green Cytotoxicity Assay to monitor cytotoxicity in HepG2 cells - 8 hour (AID 1224890); also: nearly all actives have a fitted effect of over 45% in size; also: potency is read from the fitted curve at half-maximal effect
# In short: as §1
# [8] = qHTS assay to identify small molecule HDAC inhibitors (AID 1259364); also: top concentration of the series differs between compounds; % is scaled to controls: 0 for no effect and ±100 for the full control effect; nearly all actives have a fitted effect of over 45% in size
# In short: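 Luminescence read after 30 min room-temperature HDAC-Glo incubation measures cellular class I/II HDAC activity. Compounds were applied for 2 hr at 37 C to HCT-116 wild-type cells seeded the day before.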
# [9] = qHTS RealTime-Glo MT Cell Viability Assay in HEK293 cells - 8 hour (AID 1224887); also: nearly all actives have a fitted effect of over 50% in size; also: potency is read from the fitted curve at half-maximal effect
# In short: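 Luminescence, which tracks viable cell number through reduction of the prosubstrate to a NanoLuc substrate, was read over continuous 37 C culture. Cells (600/well) were premixed with reagent and rested 5 h before 23 nL of compound in DMSO was pinned.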
# [10] = qHTS assay to identify small molecule antagonists of the estrogen receptor alpha (ER-alpha) signaling pathway using the BG1 cell line in the presence of 0.1 nM 17-beta-estradiol - cell viability counter screen (AID 1259241); also: potency is read from the fitted curve at half-maximal effect; nearly all actives have a fitted effect of over 40% in size
# In short: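 VM7Luc4E2, 4,000 cells/well, phenol red-free medium + 10% charcoal-stripped FBS; 24 hr plating; cpd + 0.1 nM E2 final, 22 hr 37C/5% CO2; CellTiter-Fluor 30 min, fluorescence.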
# [11] = qHTS assay to identify small molecule agonists of the sonic hedgehog signaling (Shh) pathway - cell viability counter screen (AID 1259366)
# In short: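 Cytotoxicity counter screen run in the same wells as the Shh reporter assay. NIH/3T3 cells carrying a Gli1 response element–driven luciferase were treated with DMSO-dissolved compounds for 24hr, and live-cell protease activity was measured with CellTiter-Fluor.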
# [12] = qHTS assay to identify small molecule antagonists of the sonic hedgehog signaling (Shh) pathway - cell viability counter screen (AID 1259367); also: potency is read from the fitted curve at half-maximal effect; nearly all actives have a fitted effect of over 55% in size
# In short: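 Cytotoxicity was assessed in parallel with Shh reporter activity by measuring live-cell protease fluorescence (CellTiter-Fluor) in NIH/3T3 cells stably carrying Gli1-Luc, treated with compound under conditioned medium stimulation for 23 hr plus 1 hr reagent incubation.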
# [13] = qHTS assay to identify small molecule HDAC inhibitors - cell viability counter screen (AID 1259365)
# In short: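 Luminescence from CellTiter-Glo, developed 30min at room temperature, reports viability of wild-type HCT-116 cells treated 2hr with compounds at 37 C and 5% CO2 after overnight plating.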
# Tags tell the direction and shape of the fitted curve or compound fluorescence and quenching.
smiles,measurement,setting,value
CCCc1c(OCCCOc2ccc(OCC(=O)O)cc2)ccc(C(C)=O)c1O,Potency,[1],inactive
same,Potency,[2],"inconclusive: 43.6 µM [cytotoxic, partial curve]"
same,Potency,[3],"inconclusive: 30.6 µM [rising, partial curve]"
Nc1c(Cl)cc(Cl)cc1[N+](=O)[O-],Potency,[1],"inconclusive: 61.6 µM [activator, single point]"
same,Potency,[4],inactive
same,Potency,[5],"inconclusive: 21.7 µM [inhibitor, full curve]"
same,Potency,[6],"inconclusive: 21.7 µM [inhibitor, full curve, poor fit]"
CCCCCN(CCCOC)C(=O)C(CCC(=O)O)NC(=O)c1ccc(Cl)c(Cl)c1 (stereo not given),Potency,[1],"inconclusive: 10.7 µM [activator, single point]"
same,Potency,[7],"inconclusive: 9.52 µM [activator, partial curve]"
same,Potency,[8],inactive
Brc1c2ccccc2cc2ccccc12,Potency,[1],inactive
same,Potency,[9],"inconclusive: 55.5 µM [cytotoxic, partial curve, poor fit]"
same,Potency,[3],"inconclusive: 69.3 µM [fluorescent, single point]"
COc1ccc(Cl)cc1C(=O)NCCc1ccc(S(=O)(=O)NC(=O)NC2CCCCC2)cc1,Potency,[1],inactive
same,Potency,[2],"inconclusive: 54.9 µM [cytotoxic, single point] and inconclusive: 26.8 µM [cytotoxic, single point]"
same,Potency,[6],"inconclusive: 0.611 µM [inhibitor, single point]"
O=C(O)[C@@H]1[C@H]2C[C@H]3c4[nH]c5ccccc5c4CCN3C[C@@H]2CC[C@@H]1O,Potency,[1],"inconclusive: 9.52 µM [activator, partial curve]"
same,Potency,[7],"inconclusive: 10.7 µM [activator, single point]"
Nc1ccc([N+](=O)[O-])c(C(F)(F)F)c1,Potency,[1],inactive
same,Potency,[4],"inconclusive: 15.1 µM [activator, partial curve, poor fit]"
same,Potency,[8],inactive
same,Potency,[6],"inconclusive: 11.9 µM [inhibitor, single point]"
CC(=O)OCC(=O)[C@@]1(OC(C)=O)[C@@H](C)C[C@H]2[C@@H]3C[C@H](F)C4=CC(=O)C=C[C@]4(C)[C@@]3(F)[C@@H](O)C[C@@]21C,Potency,[1],inactive
same,Potency,[2],"inconclusive: 16.9 µM [cytotoxic, partial curve]"
same,Potency,[6],"inconclusive: 37.6 µM [inhibitor, single point]"
Cc1cc(O)cc(C)c1Cl,Potency,[1],"inconclusive: 54.9 µM [activator, single point]"
same,Potency,[7],inactive
same,Potency,[10],"inconclusive: 61.1 µM [rising, single point]"
same,Potency,[6],inconclusive: 6.68 µM [inhibitor]
same,Potency,[3],inactive
CC1=CC[C@@]23C[C@@H]1C(C)(C)[C@@H]2CC[C@H]3C,Potency,[1],"inconclusive: 54.9 µM [activator, single point]"
same,Potency,[2],"inconclusive: 54.9 µM [cytotoxic, single point]"
c1ccc(C[P+](c2ccccc2)(c2ccccc2)c2ccccc2)cc1,Potency,[1],active: 21.9 µM
same,Potency,[9],"inconclusive: 2.19 µM [cytotoxic, full curve]"
same,Potency,[7],inactive
same,Potency,[10],"inconclusive: 17.2 µM [cytotoxic, partial curve]"
same,Potency,[11],"inconclusive: 13.7 µM [cytotoxic, full curve]"
same,Potency,[12],"inconclusive: 17.2 µM [cytotoxic, full curve]"
same,Potency,[6],active: 5.45 µM
Oc1ccc2ccccc2c1,Potency,[1],"inconclusive: 21.9 µM [activator, single point]"
same,Potency,[9],inactive
same,Potency,[5],"inconclusive: 31.4 µM [inhibitor, partial curve] and inconclusive: 30.6 µM [inhibitor, partial curve]"
same,Potency,[3],"inconclusive: 43.3 µM [activator, partial curve]"
same,activation,[3],inconclusive: 9.73%
O=C(O)CCC(=O)OC[C@@H](NC(=O)C(Cl)Cl)[C@H](O)c1ccc([N+](=O)[O-])cc1,Potency,[1],active: 12 µM
same,Potency,[4],"inconclusive: 21.3 µM [activator, single point]"
same,activation,[3],inconclusive: 5.71% [at 42.5 µM]
CC(C)=CCC[C@](C)(O)[C@@H]1CC=C(C)CC1,Potency,[1],active: 43.6 µM
same,Potency,[7],"inconclusive: 49 µM [activator, single point]"
same,Potency,[13],inactive

# Source: PubChem BioAssay (Tox21)
